pIC50: −log10 of the molar value. By IC50 is meant the dose at which the fit gives 50% viability; a limit (>, <) means that the fit lies beyond the doses tested. AUC is the area under the same curve over the 256-fold range up to the top dose, as a fraction; it is 1 without any effect and falls as sensitivity rises. For some of these results: An inferred top dose comes from the curve model; the source does not state it. For some of these results: Drugs with an entry number were screened twice under separate entries, and the two screens often disagree.
Key:
Assay in all cases: Viability of human cancer cell lines after 72 h of drug (GDSC screen)
Elesclomol = compound: CN(NC(=O)CC(=O)NN(C)C(=S)c1ccccc1)C(=S)c1ccccc1 [Elesclomol]; conditions: top dose 0.2 µM; top dose inferred
Description: (§1)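 Human cancer cell lines in 384-well plates, medium with 10% serum, drug for 72 h over a 256-fold dose range (nine 2-fold or five 4-fold steps up to the top dose). Adherent lines were fixed and stained with the nucleic acid dye Syto60, suspension lines read with resazurin; signal relative to control wells, capped at 0 and 100%. One two-parameter sigmoid per drug and line, fitted in a mixed model over all curves with the slope shared within a line.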

VNLG/124 = compound: CCCC(=O)OCc1ccc(OC(=O)/C=C(C)/C=C/C=C(C)/C=C/C2=C(C)CCCC2(C)C)cc1 [VNLG/124]; conditions: top dose 5.12 µM; top dose inferred
Description: as §1

Tamoxifen = compound: CC/C(=C(\c1ccccc1)c1ccc(OCCN(C)C)cc1)c1ccccc1 [Tamoxifen]; conditions: top dose 5 µM
Description: as §1

OSI-930 = compound: O=C(Nc1ccc(OC(F)(F)F)cc1)c1sccc1NCc1ccnc2ccccc12 [OSI-930]; conditions: top dose 10.24 µM
Description: as §1

Bleomycin = compound: Cc1c(N)nc([C@H](CC(N)=O)NC[C@H](N)C(N)=O)nc1C(=O)N[C@H](C(=O)N[C@H](C)[C@@H](O)[C@H](C)C(=O)N[C@H](C(=O)NCCc1nc(-c2nc(C(=O)NCCC[S+](C)C)cs2)cs1)[C@@H](C)O)[C@@H](OC1OC(CO)C(O)C(O)C1OC1OC(CO)C(O)C(OC(N)=O)C1O)c1cnc[nH]1 [Bleomycin]
Description: as §1

NSC-87877 = compound: O=S(=O)(O)c1ccc2cc(N=Nc3cc(S(=O)(=O)O)c4cccnc4c3O)ccc2c1 [NSC-87877]; conditions: top dose 16 µM; top dose inferred
Description: as §1

LAQ824 = compound: O=C(/C=C/c1ccc(CN(CCO)CCc2c[nH]c3ccccc23)cc1)NO [LAQ824]; conditions: top dose 1.024 µM; top dose inferred
Description: as §1

BX-912 = compound: O=C(Nc1cccc(Nc2ncc(Br)c(NCCc3cnc[nH]3)n2)c1)N1CCCC1 [BX-912]; conditions: top dose 10.24 µM; top dose inferred
Description: as §1

Masitinib = compound: Cc1ccc(NC(=O)c2ccc(CN3CCN(C)CC3)cc2)cc1Nc1nc(-c2cccnc2)cs1 [Masitinib]; conditions: top dose 20 µM
Description: as §1

[1] = top dose 50 µM, screen: GDSC drug entry 1378, top dose inferred
[2] = top dose 64 µM, screen: GDSC drug entry 190

Row | Cell Line | AUC (Elesclomol) | pIC50 (Elesclomol) | AUC (VNLG/124) | pIC50 (VNLG/124) | AUC (Tamoxifen) | pIC50 (Tamoxifen) | AUC (OSI-930) | pIC50 (OSI-930) | AUC (Bleomycin; [1]) | pIC50 (Bleomycin; [1]) | AUC (Bleomycin; [2]) | pIC50 (Bleomycin; [2]) | AUC (NSC-87877) | pIC50 (NSC-87877) | AUC (LAQ824) | pIC50 (LAQ824) | AUC (BX-912) | pIC50 (BX-912) | AUC (Masitinib) | pIC50 (Masitinib)
1 | HOP-62 (lung adenocarcinoma, adherent) | 0.57 | 7.71 | 0.978 | < 5.29 | 0.984 | < 5.30 | 0.965 | < 4.99 | 0.187 | 6.44 | 0.053 | > 6.60 | 0.986 | < 4.80 | 0.29 | 7.79 | 0.89 | < 4.99 | 0.885 | < 4.70
2 | Hep 3B2_1-7 (liver, adherent) | 0.451 | 8.04 | 0.969 | < 5.29 | 0.928 | < 5.30 | 0.974 | < 4.99 | 0.611 | 5.20 | 0.143 | 6.51 | 0.966 | < 4.80 | 0.308 | 7.73 | 0.944 | < 4.99 | 0.953 | < 4.70
3 | P31-FUJ (acute myeloid leukaemia, suspension) | 0.994 | < 6.70 | 0.996 | < 5.29 | 0.996 | < 5.30 | 0.95 | < 4.99 | 0.974 | < 4.30 | 0.984 | < 4.19 | 0.989 | < 4.80 | 0.63 | 6.88 | 0.978 | < 4.99 | 0.926 | 4.72
4 | CP66-MEL (melanoma, adherent) | 0.754 | 7.12 | 0.979 | < 5.29 | 0.982 | < 5.30 | 0.962 | < 4.99 | 0.852 | 4.32 | 0.952 | < 4.19 | 0.973 | < 4.80 | 0.511 | 7.16 | 0.984 | < 4.99 | 0.964 | < 4.70
5 | KMOE-2 (acute myeloid leukaemia, suspension) | 0.686 | 7.41 | 0.99 | < 5.29 | 0.98 | < 5.30 | 0.93 | < 4.99 | 0.936 | < 4.30 | 0.872 | 4.30 | 0.984 | < 4.80 | 0.435 | 7.36 | 0.828 | 5.27 | 0.871 | 4.81
6 | JVM-2 (lymphoid neoplasm, suspension) | 0.929 | < 6.70 | 0.939 | < 5.29 | 0.946 | < 5.30 | 0.931 | < 4.99 | 0.577 | 5.27 | 0.264 | 6.14 | 0.971 | < 4.80 | 0.837 | 6.03 | 0.855 | < 4.99 | 0.768 | 5.04
7 | KYSE-510 (oesophagus, adherent) | 0.839 | 6.98 | 0.99 | < 5.29 | 0.992 | < 5.30 | 0.992 | < 4.99 | 0.174 | 6.39 | 0.377 | 5.71 | 0.892 | 4.88 | 0.37 | 7.52 | 0.978 | < 4.99 | 0.972 | < 4.70
8 | YT (lymphoid neoplasm, suspension) | 0.521 | 7.85 | 0.967 | < 5.29 | 0.989 | < 5.30 | 0.983 | < 4.99 | 0.947 | < 4.30 | 0.337 |  | 0.989 | < 4.80 | 0.278 | 7.77 | 0.864 | 5.17 | 0.888 | 4.78
9 | SBC-5 (small cell lung carcinoma, adherent) | 0.586 | 7.69 | 0.992 | < 5.29 | 0.993 | < 5.30 | 0.988 | < 4.99 | 0.701 | 5.00 | 0.319 | 5.85 | 0.99 | < 4.80 | 0.377 | 7.50 | 0.989 | < 4.99 | 0.986 | < 4.70
10 | QIMR-WIL (acute myeloid leukaemia, suspension) | 0.738 | 7.24 | 0.855 | 5.41 | 0.976 | < 5.30 | 0.895 | < 4.99 | 0.657 | 5.08 | 0.232 | 6.16 | 0.97 | < 4.80 | 0.252 | 7.89 | 0.483 | 6.24 | 0.815 | 4.98
11 | OE33 (oesophagus, adherent) | 0.981 | < 6.70 | 0.983 | < 5.29 | 0.967 | < 5.30 | 0.984 | < 4.99 | 0.861 | < 4.30 | 0.411 | 5.66 | 0.984 | < 4.80 | 0.459 | 7.32 | 0.984 | < 4.99 | 0.887 | < 4.70
12 | D-502MG (glioma, adherent) | 0.59 | 7.60 | 0.956 | < 5.29 | 0.967 | < 5.30 | 0.967 | < 4.99 | 0.551 | 5.33 | 0.963 | < 4.19 | 0.978 | < 4.80 | 0.774 | 6.18 | 0.901 | < 4.99 | 0.967 | < 4.70
13 | 42-MG-BA (glioma, adherent) | 0.439 | 8.08 | 0.985 | < 5.29 | 0.98 | < 5.30 | 0.973 | < 4.99 | 0.266 | 6.20 | 0.614 | 5.08 | 0.985 | < 4.80 | 0.615 | 6.87 | 0.825 | 5.17 | 0.955 | < 4.70
